From the supplement of paper PMC10126150
Sequences with one replicate were seen in a single cluster, so their values are uncertain.

Each sequence was assayed on ATP (assay: switch fluorescence ratio, 500 uM ATP over buffer (Cy3 cluster intensity, sum of 5 cycles each) (fold (ratio)); higher = stronger signal-on switching upon ATP binding; sequences stand for … in TCGTCGGCAGCGTCAGATGTGTATAAGAGACAGTTTTTTTTTTTTTTTTTTTTTTTTT…TC). Conditions: aptamer strand: ATP DNA aptamer (quencher-CACCTGGGGGAGTATTGCGGAGGAAGG + anchor), 100 nM annealed; ATP concentration: 500 uM; one replicate.
Procedure, shortened: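 Between each of five buffer/ATP cycles, the flow-cell was stripped with NaOH and re-annealed. Each cycle imaged Cy3-labelled switching-strand clusters, annealed to 100 nM quencher-labelled ATP aptamer on a modified Illumina MiSeq flow-cell, first in selection buffer and then after 15 min with 500 uM ATP at 22 °C. The fluorescence ratio is summed target-cycle over summed buffer-cycle Cy3 intensity per cluster, averaged per switch-domain sequence, with clusters outside 100-1000 RFU excluded.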
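Further: ATP exposure 15 min at 22 °C before imaging.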

Row | Sequence | switch fluorescence ratio
1 | GCTGGTCGCG | 0.948
2 | TCTCTGCCCT | 1.07
3 | TTTTCAAGAT | 1.08
4 | ACAGGCATTC | 1.12
5 | TTGGACCTA | 1.01
6 | GGGCCAATGT | 1.01
7 | TTATCTGTT | 1.05
8 | TTGAGACTTG | 1.02
9 | TCCAGACCCC | 1.1
10 | AAGGCAGCTA | 1.01
11 | CTGCGAACCA | 0.984
12 | TTTACGATAC | 2.62
13 | AAAAGCATCC | 1.17
14 | TGAGCTAAAC | 1.17
15 | TAAAATAGCT | 0.991
16 | GCTTATCGGG | 1.02
17 | TTGTGTTTGA | 0.964
18 | ATCCCGGGAA | 0.96
19 | ATCCTATGGC | 1.03
20 | GGTTCGTGTA | 0.992
21 | TGCCTTAATG | 0.981
22 | GTAGGATAGA | 0.948
23 | GTAAACCGAC | 1.11
24 | CAATCACCTT | 1.16
25 | TGGGCATACA | 1.15

Row | Sequence | switch fluorescence ratio
26 | AGGTGGTGTT | 0.958
27 | GGGCCTCGTT | 0.968
28 | ATTCTTAAA | 1.04
29 | ATGACCAGAT | 0.978
30 | GCAGATCCGG | 0.971
31 | CTCCAGAGCA | 2.27
32 | ATGACTGCGG | 0.999
33 | AACTAAAGGG | 1.11
34 | TGCATGAAAT | 0.997
35 | TTGACCGGTT | 1.06
36 | TGCGAAATTC | 1.26
37 | ACCAAGGCTC | 1.15
38 | CGCAGACTTA | 1.19
39 | TTAGTGGTC | 0.973
40 | TTAACTTCCA | 1.07
41 | AACGCCGTT | 0.97
42 | CGCCTCGCTA | 1.24
43 | TCGCAGCTGT | 1.5
44 | TTTACTTTTG | 1.05
45 | TCTCTTAAGC | 1.01
46 | ATCGCGGGCG | 1.06
47 | GTCGGGATAG | 1.14
48 | ATAATCTCAT | 0.984
49 | TCCAAGTGAG | 1
50 | TCAACGGAGA | 0.981

Row | Sequence | switch fluorescence ratio
51 | TGCGTTTGGT | 1.01
52 | AGAGGCTGCG | 0.964
53 | ATGGAAAACC | 1.05
54 | CAGAACATCG | 1.03
55 | ACTACACTTG | 1.27
56 | GCGGTTGGCT | 1.05
57 | GTGTAGAGCG | 1.09
58 | AAGTGTGAGT | 0.99
59 | TAGGGTTATA | 1.01
60 | GTTCTTCCGC | 1.31
61 | GCCAAAGCGA | 1.2
62 | GGATTCTCGG | 1.02
63 | CAATGGATAT | 0.99
64 | CCACAAAGAG | 1.03
65 | GTTGGAATTC | 0.967
66 | TTCCATGGAC | 1.04
67 | AAGCGAGTCG | 0.998
68 | TCAATCCGGT | 1.45
69 | CTGGCAGGAG | 1.07
70 | ACGGGATCAG | 1.01
71 | CCGGTGTCGC | 0.965
72 | TCGATGTGGG | 0.955
73 | ACATGACTTT | 1.08
74 | GCCCTGCCGG | 0.997
75 | CAGAACGAGC | 0.965

Row | Sequence | switch fluorescence ratio
76 | AGCCATTAGG | 0.91
77 | TAACATTAAT | 1.04
78 | CGGGCACCCT | 0.957
79 | GCTGCTTTCA | 1
80 | ATGTGGAGGA | 1.05
81 | ACCGCGGTGG | 1.04
82 | GCGGGAAAAT | 0.834
83 | AGGCGAGCAG | 0.997
84 | CTGAGGAGT | 0.998
85 | CGGATGAACT | 0.999
86 | GAAACACACC | 1.27
87 | CACTGCTACT | 1.16
88 | CCGTCAGACT | 2.2
89 | TCGGCAAGAT | 2.28
90 | AGATGCATCT | 0.973
91 | TTGCCTATT | 0.966
92 | GTGTTAACAC | 1.14
93 | TCGTTACGAA | 0.989
94 | ATAACTGGGT | 0.989
95 | ATTAACTGGT | 1.05
96 | TAATGGCTAT | 0.976
97 | ATCAGGGTTA | 0.965
98 | GCTCGGGGCT | 1.03
99 | CCTAGGACTA | 1.01
100 | GGTTGCAGCA | 1.1

Row | Sequence | switch fluorescence ratio
101 | AGTGCTATTA | 1
102 | CACAAACGGA | 1.32
103 | ATGTTTTTTA | 0.951
104 | TTCGGAATGG | 1.11
105 | CCAAGCGTTA | 1.35
106 | GAACGACGAG | 0.977
107 | ATTGCGTGCT | 1.04
108 | TGGCCATTTG | 0.99
109 | AAACCATTTA | 1.06
110 | ACTTGCCGTG | 1.05
111 | TCGGACTGCT | 1
112 | ACGCGCGGCG | 0.982
113 | ATGCTTTAAA | 0.983
114 | CGCATGGAAC | 1.82
115 | GCACGAGTTA | 0.996
116 | AAGCGAAAAG | 1.02
117 | ATAGTTGTAT | 1.01
118 | AAAGCGCTGT | 0.987
119 | AGATTATTCA | 0.991
120 | AGCGATGGCT | 1.06
121 | GGTCGGGTCA | 1.01
122 | AATTAAGTTG | 0.984
123 | CAGAAACGTA | 1.02
124 | GCTCAGACTG | 0.893
125 | CTCGGGATT | 1.78

Row | Sequence | switch fluorescence ratio
126 | AATCGGTCTC | 1.01
127 | ACTTTAAAGC | 1.09
128 | CTTACCTGTG | 0.959
129 | TGTCGGTATC | 0.984
130 | GCCCTGTCCA | 1.03
131 | CTGTCAGCGC | 1.04
132 | ATTAGTTTCG | 1.02
133 | GCATCGGGGC | 0.974
134 | ACAGGATTCT | 0.995
135 | GCCGAAGATG | 1.03
136 | GTGCGGGACC | 1.04
137 | GTATCCATTG | 0.99
138 | CAGGGAGTCC | 1.01
139 | GATAAAGGCC | 1.01
140 | GCTCTCCAGA | 1.02
141 | CGTGTCAGA | 1.09
142 | TTATTCAGGC | 0.988
143 | TCATCTATTT | 0.982
144 | AAGCCACCTT | 1.1
145 | AAGGTCAGGG | 1.06
146 | AAGAATCCGT | 1.04
147 | GTCTGGAGTT | 1.04
148 | AAGAGAAATG | 0.975
149 | GCACACCGGA | 1.18
150 | ATGTGCACCG | 0.982

Row | Sequence | switch fluorescence ratio
151 | GGGATAGCTT | 0.964
152 | GCCCTTTATA | 1.03
153 | TCCGGCGGAG | 1.01
154 | AAACCGTTG | 1.03
155 | ACTTGGATTG | 1.02
156 | TTGAACCAAA | 1
157 | TTCCTTGAAT | 1.02
158 | TCAGACTTCA | 1.01
159 | TGTAGATT | 0.997
160 | GCAGGATATC | 1.04
161 | TCGACTCGGG | 0.99
162 | TTCCGCGGGT | 0.96
163 | CCTTTGCGCT | 1.35
164 | CCCGTAGGCC | 0.968
165 | TCCAGGTACG | 1.14
166 | ATTTGGCGTT | 1
167 | CGCTCTCCAC | 2.27
168 | TGAAGCGGGA | 1.02
169 | GTCCGGTCGG | 0.987
170 | AATGAGTCAC | 1
171 | GCGCTCGATA | 1
172 | GGGTTGTTAT | 1.01
173 | CTTCGCTTAA | 2.84
174 | ACACTAATTG | 0.973
175 | TCAACGCATT | 2.09

Row | Sequence | switch fluorescence ratio
176 | TTTGAACGGC | 1
177 | AGCAGGTCTA | 1.05
178 | CTTAGAGATC | 0.975
179 | CCAGACCGGA | 1.07
180 | TTATAGTCAC | 1.01
181 | TCAGAGAGTA | 0.982
182 | TAAGCTGAAA | 0.955
183 | GCCCACCGTT | 1.04
184 | ATATGGTGGC | 1.01
185 | TTGAGGTGCT | 0.96
186 | TTGCTGCGGA | 1.02
187 | CAGTTGGTGT | 0.985
188 | AATCGTATGT | 0.997
189 | TGGTTAATC | 0.95
190 | ATTATACATG | 0.972
191 | CAGAAAGCGT | 1.02
192 | TGGTGAGTCT | 0.958
193 | GAGCGCGCAT | 1.04
194 | CGATATATAC | 2.21
195 | TTTAGTAAAG | 0.977
196 | GGGGGCGACA | 1.03
197 | TCGGATAGCG | 0.958
198 | AGTGGCTACG | 1.04
199 | TGGGTACTT | 0.977
200 | CGGAAGACT | 1.31
